{"source": "PubChem BioAssay AID488969", "about": "(Vanderbilt High Throughput Screening Facility, 2010)", "note": "In all, about 110,000 compounds were measured (“z-score”: median about -0.1, highest 2% from about 2 on). Some of the results follow. Activity calls are given as the source filed them.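 The calls were made as follows: active = z-score in the third read window above 3 or below -3; inactive = the rest.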"}
{"biological_target": "Metabotropic glutamate receptor 8 (Rattus norvegicus) (UniProt P70579)", "sequence (P70579 whole entry, looked up)": "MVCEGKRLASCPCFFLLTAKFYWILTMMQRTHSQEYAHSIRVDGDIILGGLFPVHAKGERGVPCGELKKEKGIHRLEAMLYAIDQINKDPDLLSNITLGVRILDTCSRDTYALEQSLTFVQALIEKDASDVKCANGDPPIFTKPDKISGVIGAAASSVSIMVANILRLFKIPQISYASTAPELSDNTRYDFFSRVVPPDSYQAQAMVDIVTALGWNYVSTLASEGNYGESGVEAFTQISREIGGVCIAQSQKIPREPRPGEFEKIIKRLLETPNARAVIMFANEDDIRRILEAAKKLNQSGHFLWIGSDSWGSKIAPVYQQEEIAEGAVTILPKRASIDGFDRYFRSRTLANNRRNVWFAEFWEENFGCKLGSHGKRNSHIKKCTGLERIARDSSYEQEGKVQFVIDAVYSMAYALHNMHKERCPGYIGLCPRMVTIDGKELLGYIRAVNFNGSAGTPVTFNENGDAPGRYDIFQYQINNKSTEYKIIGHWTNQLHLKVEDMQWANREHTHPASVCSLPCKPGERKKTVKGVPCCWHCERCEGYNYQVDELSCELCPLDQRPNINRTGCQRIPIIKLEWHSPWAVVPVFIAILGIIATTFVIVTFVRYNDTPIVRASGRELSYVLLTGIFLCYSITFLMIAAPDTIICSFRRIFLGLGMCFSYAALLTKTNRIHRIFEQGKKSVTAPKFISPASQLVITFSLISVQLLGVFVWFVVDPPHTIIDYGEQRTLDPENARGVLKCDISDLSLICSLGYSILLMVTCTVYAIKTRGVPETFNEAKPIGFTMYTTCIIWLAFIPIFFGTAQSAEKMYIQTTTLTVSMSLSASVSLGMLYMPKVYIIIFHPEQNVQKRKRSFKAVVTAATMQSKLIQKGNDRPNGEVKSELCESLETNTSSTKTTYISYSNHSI", "test": "rat mGluR8 modulators via GIRK flux, primary screen, cell-based, thallium flux, HTS (AID 488969)", "conditions": "HEK293 rat mGluR8, GIRK (G protein-gated inwardly rectifying potassium channel) thallium flux, FluoZin2; at 10 µM; stronger effect = higher value; submaximal glutamate (EC20) added with thallium"}
{"smiles": "CCOC(=O)c1cnn(-c2ccc(Cl)cc2)c1C1CCN(C(=O)OC(C)(C)C)CC1", "z-score": -0.27}
{"smiles": "Cc1ccc(-c2nnc(SCC(=O)N/N=C/c3c(C)nn(-c4ccccc4)c3C)n2-c2ccccc2)cc1", "z-score": -2.13}
{"smiles": "O=C(Cn1ncc2c1-c1ccccc1OC2)N1CCN(Cc2ccc3c(c2)OCO3)CC1", "z-score": 1.96}
{"smiles": "O=C(CSCCO)Nc1ccccc1", "z-score": "active: 3.04"}
{"smiles": "COc1ccc(CCN(Cc2ccc(C(C)C)cc2)S(=O)(=O)c2ccc(S(=O)(=O)N(C)C)cc2)cc1OC", "z-score": -0.134}
{"smiles": "COc1ccc2c(c1)c(CC(=O)Nc1ccc(C(C)=O)cc1)c(C)n2C(=O)c1ccc(Cl)cc1", "z-score": 0.181}
{"smiles": "OC(c1ccccc1)c1nc2ccccc2s1", "note": "(stereo not drawn)", "z-score": -0.283}
{"smiles": "CCOC(=O)CSc1nnc(-c2ccc(S(=O)(=O)NCc3cccs3)cc2)o1", "z-score": -0.23}
{"smiles": "c1ccc(N2CCN(c3nc(NCc4ccco4)c4ccccc4n3)CC2)cc1", "z-score": -0.399}
{"smiles": "Cc1cc(C)nc(NS(=O)(=O)c2ccc(NC(=O)CCC3COc4ccccc4O3)cc2)n1", "note": "(stereo not drawn)", "z-score": -0.4}
{"smiles": "O=C(CCCCCN1C(=O)c2ccccc2C1=O)Oc1ccc2c3c(c(=O)oc2c1)CCC3", "z-score": -0.113}
{"smiles": "Cc1ccc(NC(=O)C2CCN(S(C)(=O)=O)CC2)cc1C", "z-score": 0.424}
{"smiles": "CCOc1cc(CNc2ccccc2)cc(Br)c1OCc1ccc(F)cc1", "z-score": -0.142}
{"smiles": "CCCc1n[nH]c2c1/C(=N\\O)CCC2", "z-score": 0.258}
{"smiles": "O=C(Nc1ccc(-c2nc3ccccc3o2)c(O)c1)c1cc(-n2cnnc2)ccc1Cl", "z-score": -0.0868}
{"smiles": "CCCCNC(=O)CCn1c(=O)c2ccccc2n(Cc2ccc(Cl)cc2)c1=O", "z-score": -0.00943}
{"smiles": "CCOC(=O)C1=C(C)NC(=O)NC1c1cc2c(cc1Br)OCO2", "note": "(stereo not drawn)", "z-score": -0.038}
{"smiles": "O=C(OCc1ccc(Cl)cc1)c1ccccc1C(=O)c1ccccc1", "z-score": -0.635}
{"smiles": "COc1ccc(Cn2c(SCc3cc(C)ccc3C)nc3cc(OC)c(OC)cc3c2=N)cc1", "z-score": -0.419}
{"smiles": "CCCn1c(N)c(C(=O)CSc2nc(C)cs2)c(=O)n(C)c1=O", "z-score": 0.109}
{"smiles": "CC(=O)c1c(C)[nH]c(-c2ccccc2)c1C", "z-score": -0.274}
{"smiles": "Cc1ccc(CNc2nc3c([nH]2)c(=O)n(C)c(=O)n3C)cc1", "z-score": -0.17}
{"smiles": "COc1ccccc1NC(=O)C1CCN(c2ncccn2)CC1", "z-score": 1.08}
{"smiles": "COC(=O)c1ccccc1NC(=O)c1ccco1", "z-score": -0.866}
{"smiles": "CCCSc1nc(NCc2ccco2)c2c3c(sc2n1)COC(C)(C)C3", "z-score": 0.73}
{"smiles": "Cc1cc(C)n(CC(O)COc2ccc(OCC(O)Cn3nc(C)cc3C)cc2)n1", "note": "(stereo not drawn)", "z-score": 0.123}
{"smiles": "O=C(CSc1nnc(-c2ccco2)o1)NC1CC2CCC1C2", "note": "(stereo not drawn)", "z-score": 0.346}
{"smiles": "CCc1cccc(NC(=O)C2CCN(S(=O)(=O)c3cccs3)CC2)c1", "z-score": 0.0737}
{"smiles": "COc1cc(C)c(S(=O)(=O)Nc2ccc(CC(=O)O)cc2)cc1C", "z-score": 2.01}
{"smiles": "O=C(Nc1ccn(Cc2c(F)c(F)c(F)c(F)c2F)n1)c1ccc(COc2ccccc2Cl)cc1", "z-score": -0.215}
{"smiles": "COc1ccc(/C=N/NC(=O)c2ccn[nH]2)cc1COc1ccc(Cl)cc1Cl", "z-score": -0.25}
{"smiles": "COc1ccc(C(=O)Nc2cc(OC)c(NC(=O)c3ccco3)cc2OC)cc1", "z-score": -0.196}
{"smiles": "O=S(=O)(NCCSc1nnnn1-c1ccccc1)c1cccs1", "z-score": -0.0979}
{"smiles": "CCN(CC)S(=O)(=O)c1ccc(NC(=O)C(OC)c2ccccc2)cc1", "note": "(stereo not drawn)", "z-score": 0.185}
{"smiles": "Cc1cc(=O)oc(C)c1C(=O)NCC1COc2ccccc2O1", "note": "(stereo not drawn)", "z-score": -0.0515}
{"smiles": "O=C(/C=C/c1ccccc1)Nc1ccc(CN2CCOCC2)cc1", "z-score": -0.396}
{"smiles": "CCN(CC)c1ccc(C(=O)N/N=C(\\C)c2ccc(O)cc2)cc1", "z-score": -0.249}
{"smiles": "Oc1ccc(/C=N/n2c3ccccc3c3ccccc32)cc1", "z-score": -0.134}
{"smiles": "CNC(=O)NC(=O)C(C)OC(=O)c1oc2ccccc2c1CSc1ccc(Cl)cc1", "note": "(stereo not drawn)", "z-score": -0.372}
{"smiles": "COc1ccc(S(=O)(=O)N2CN(Cc3ccco3)c3nc4ccccc4nc32)cc1", "z-score": -0.783}
{"smiles": "O=C(NC1CC1)c1ccc2c(c1)NC(=O)c1ccccc1S2", "z-score": -0.887}
{"smiles": "Clc1ccc(Cn2c(-c3cccnc3Cl)nc3ccccc32)c(Cl)c1", "z-score": 0.437}
{"smiles": "CC(=O)c1ccc(OC(C)C)c(Cc2c(O)nc(N)[nH]c2=O)c1", "z-score": -0.337}
{"smiles": "O=c1[nH]c(=O)n(-c2ccccc2)c2c1C(C(F)(F)F)(C(F)(F)F)N=C(C1CCCCC1)N2", "z-score": 0.083}
{"smiles": "O=C(Nc1ccccc1)c1ccc(S(=O)(=O)N(CCO)CCO)cc1", "z-score": -0.105}
{"smiles": "CCn1c(C)[n+](CCOCC[n+]2c(C)n(CC)c3cc(Cl)c(Cl)cc32)c2cc(Cl)c(Cl)cc21", "z-score": -0.0328}
{"smiles": "O=C(CC1CCCCC1)N1CCC(c2nc(-c3ccc(S(=O)(=O)N4CCCC4)cc3)no2)CC1", "z-score": -0.557}
{"smiles": "O=C(COc1ccccc1)N1CCc2ccccc21", "z-score": -0.0743}
{"smiles": "O=C(CSc1nnc(-c2ccc(Br)cc2)o1)Nc1cccc2ccccc12", "z-score": 0.475}
{"smiles": "Cc1[nH]n(-c2ncc(-c3ccc(Cl)cc3)s2)c(=O)c1C(c1ccc(Cl)cc1)C(C#N)C#N", "note": "(stereo not drawn)", "z-score": 1.02}
{"smiles": "Cc1cccc(OCCCC(=O)O)c1", "z-score": 0.134}
{"smiles": "O=C(Nc1ccc(N2CCOCC2)cc1)c1cn2ccccc2n1", "z-score": -0.142}
{"smiles": "c1ccc(-c2ccc(C3=Nn4c(nnc4-c4cc(-c5ccccc5)n[nH]4)SC3)cc2)cc1", "z-score": -0.236}
{"smiles": "O=C(O)/C=C/C(=O)Nc1ccccc1-c1ccccc1NC(=O)/C=C/C(=O)O", "z-score": 0.157}
{"smiles": "COc1ccc2c(c1OC)C(=O)OC2Nc1nc(-c2ccccc2)cs1", "note": "(stereo not drawn)", "z-score": -0.133}
{"smiles": "CC(=C1C(=O)c2ccccc2C1=O)N1CCC(C(N)=O)(N2CCCCC2)CC1", "z-score": -0.313}
{"smiles": "CCC(C(=O)NC1CCCC1)N(Cc1cccs1)C(=O)Cn1nnc(-c2ccc(OC)c(OC)c2)n1", "note": "(stereo not drawn)", "z-score": 0.331}
{"smiles": "COC(=O)CSc1nnc(-c2ccco2)n1Cc1ccco1", "z-score": -0.57}
{"smiles": "CN(C)c1nc(N2CCN(c3ccc(F)cc3)CC2)c(C#N)c(=O)o1", "z-score": 0.0312}
{"smiles": "Cc1ccc(OCCn2cc(C#N)c3ccccc32)cc1", "z-score": 0.129}
{"smiles": "Cc1c2c(n3c(nc4ccccc43)c1C#N)N(c1ccccc1)CC2", "z-score": -0.122}
{"smiles": "COc1ccc(N2CCN(Cc3cc(=O)oc4ccc(Cl)cc34)CC2)cc1", "z-score": 0.284}
{"smiles": "O=C(CSc1nncn1-c1ccccc1)NCc1cccs1", "z-score": -0.0153}
{"smiles": "Cc1c(NS(=O)(=O)c2ccc3[nH]c(=O)[nH]c3c2)c(=O)n(-c2ccccc2)n1C", "z-score": 0.504}
{"smiles": "Cc1cc2cc(CN(CCCN3CCOCC3)C(=O)NC3CCCCC3)c(=O)[nH]c2cc1C", "z-score": 0.705}
{"smiles": "Cc1cc(C)c(S(=O)(=O)Nc2ccc(-c3cn4ccccc4n3)cc2)c(C)c1", "z-score": 0.241}
{"smiles": "O=C(CP(=O)(c1ccccc1)c1ccccc1)N/N=C/c1cc(Br)cc(Br)c1O", "z-score": -0.352}
{"smiles": "Brc1ccccc1Cn1c(-c2cncs2)nc2ccccc21", "z-score": -1.37}
{"smiles": "O=C(O)c1ccc(N2C(=O)CC(Cc3ccccc3)C2=O)cc1", "note": "(stereo not drawn)", "z-score": -0.0597}
{"smiles": "O=C(Cn1c(=O)oc2cc(S(=O)(=O)N3CCCC3)ccc21)N1CCc2ccccc2C1", "z-score": -0.0295}
{"smiles": "O=C(Nc1ccon1)c1ccc(Cl)s1", "z-score": -0.406}
{"smiles": "CSc1nc(C)c(CCOCc2ccccc2)c(=O)[nH]1", "z-score": -0.044}
{"smiles": "Cc1ccc(/C=N/NC(=O)C2CC(=O)N(c3ccccc3)C2)s1", "note": "(stereo not drawn)", "z-score": -0.106}
{"smiles": "O=C(Cc1csc(N2CCOCC2)n1)N/N=C/c1ccc(F)cc1", "z-score": -0.627}
{"smiles": "Cc1cccc(N(C(=O)CNC(=O)c2cccs2)C(C(=O)NC2CCCC2)c2cccnc2)c1", "note": "(stereo not drawn)", "z-score": -0.122}
{"smiles": "O=C1S/C(=C/c2ccccc2F)C(=O)N1CCN=C1NS(=O)(=O)c2ccccc21", "z-score": -0.278}
{"smiles": "O=C(CCc1ccc(S(=O)(=O)N2CCOCC2)cc1)NCCCN1CCCC1=O", "z-score": 0.363}
{"smiles": "CC1Cc2cc(C(=O)O)ccc2O1", "note": "(stereo not drawn)", "z-score": 0.0864}
{"smiles": "O=C(NC1(C(F)(F)F)NC(=O)N(CCc2ccccc2)C1=O)C1CC1", "note": "(stereo not drawn)", "z-score": 0.0916}
{"smiles": "COc1cc(/C=N/NC(=O)C2c3ccccc3Oc3ccccc32)ccc1O", "z-score": 0.137}
{"smiles": "CCOC(=O)c1c(C)n(C)c2ccc(OC)c(NC(=O)c3cccs3)c12", "z-score": 0.203}
{"smiles": "CC1(C)CC(=O)c2c(n(-c3cccc4ccccc34)ccc2=O)C1", "z-score": -0.339}
{"smiles": "CCC(=O)Nc1ccc(NC(=O)c2ccco2)c(OC)c1", "z-score": 0.122}
{"smiles": "CCOC(=O)Cn1c(=O)c(-c2ccccc2NC)nc2ccccc21", "z-score": -0.163}
{"smiles": "Cc1cccc2sc(NC(=O)CSc3nc4ccccc4o3)nc12", "z-score": 0.0847}
{"smiles": "COC(=O)c1ccc(OCC(=O)c2ccc(C)c(C)c2)cc1", "z-score": -0.0502}
{"smiles": "CCCCCc1c(C)nc(N2CCc3ccccc3C2)[nH]c1=O", "z-score": 0.708}
{"smiles": "Cc1ccccc1C(=O)N/N=C1/SCC(=O)N1Cc1ccc2c(c1)OCO2", "z-score": -0.0826}
{"smiles": "O=C(Nc1nccs1)c1ccc(-c2ccc(Cl)cc2Cl)o1", "z-score": -0.313}
{"smiles": "Cc1ccsc1C(=O)OCC(=O)Nc1sccc1C(N)=O", "z-score": 0.376}
{"smiles": "Cc1cccc(NC(=O)c2ccccn2)c1C", "z-score": 0.479}
{"smiles": "CC(C)(C)c1ccc(C(=O)NCCC(=O)NCc2ccco2)cc1", "z-score": 0.46}
{"smiles": "Cc1cc(O)ccc1N/C=C1\\CCCC1=O", "z-score": 0.233}
{"smiles": "COc1ccccc1OCC(=O)N1CC2(C)CC1CC(C)(C)C2", "note": "(stereo not drawn)", "z-score": -0.444}
{"smiles": "c1ccc(-c2nnc(SCCC3OCCCO3)o2)cc1", "z-score": -0.0671}
{"smiles": "CCOC(=O)CSc1nnc(Cc2ccccc2)n1-c1cccc(Cl)c1", "z-score": -0.436}
{"smiles": "Cc1nc2ccc(NC(=O)c3sccc3C)cc2s1", "z-score": -0.477}
{"smiles": "O=C(c1cccc(F)c1)n1nnc2ccccc21", "z-score": 0.419}
{"smiles": "COc1ccc(CNC(=O)CN(c2cc(C)cc(C)c2)S(=O)(=O)c2c(C)noc2C)cc1", "z-score": -0.0907}
{"smiles": "COc1cc(OC)c(C2CC(=O)N3CN(c4ccc(C)cc4)CSC3=C2C#N)cc1OC", "note": "(stereo not drawn)", "z-score": 0.362}
{"smiles": "O=C(Nc1ccccc1C(=O)NCc1ccccc1)c1ccccc1Br", "z-score": -0.438}
{"smiles": "O=S(=O)(c1cc(Cl)cc(Cl)c1)N1CCCC1c1nc2ccccc2s1", "note": "(stereo not drawn)", "z-score": -0.294}
{"smiles": "O=C(c1ccco1)N(Cc1cc2ccccc2[nH]c1=O)C1CCCCC1", "z-score": -1.01}
{"smiles": "Nc1sc2c(c1C(=O)NC1CCS(=O)(=O)C1)CCCC2", "note": "(stereo not drawn)", "z-score": 0.0575}
{"smiles": "CCOC(=O)/C(C#N)=C/c1ccc(-c2ccsc2C(=O)OC)o1", "z-score": -2.97}
{"smiles": "COc1cccc(-n2c(Cc3cc(=O)[nH]c(=O)[nH]3)nnc2SCC(=O)N2CCCCC2)c1", "z-score": -0.312}
{"smiles": "Cc1ccc(S(=O)(=O)N2CCOCC2)cc1C(=O)N1CCOCC1", "z-score": -0.483}
{"smiles": "CC1CN(C(=O)CSc2nnc(-c3ccncc3)n2-c2ccccc2)CC(C)O1", "note": "(stereo not drawn)", "z-score": 0.267}
